Experimental data from PubChem BioAssay AID2546 (National Center for Advancing Translational Sciences (NCATS), 2010).
Among all 310,000 compounds or so, about 11,000 (3.5%) were called active. The shares of active, inactive and inconclusive entries below differ from those in the screen. Calls follow the shape of the dose curve; as a rule, active = well fitted inhibition curve with a large enough effect; inconclusive = small, poorly fitted or top-dose-only effect, or effect the other way; inactive = flat fitted curve, though single readings scatter. Potencies of inconclusive entries are left out as doubtful fits.

Test: VP16 counterscreen qHTS for inhibitors of ROR gamma transcriptional activity;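 also: Gal4-VP16 expression switched on by copper sulfate through the metallothionein promoter; nearly all actives have a fitted effect of over 50% in size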
Conditions: Drosophila S2 Gal4-VP16 UAS-luciferase, luminescence, 20 h; series mostly up to 53.6 µM
Potency is read from the fitted curve at half-maximal effect; tags tell the direction and shape of the fitted curve.

Structure (SMILES)	Potency
COc1cccc(C(=O)NNc2nc(C)cc(C)n2)c1	inactive
O=C(c1cc(-c2ccc3c(c2)OCO3)on1)N1CCOCC1	active: 7.94 µM
O=C(O)CN1C(=O)/C(=C/c2ccc(SCc3ccccc3)o2)SC1=S	inconclusive [inhibitor, single point]
CN(/C=C/c1c([N+](=O)[O-])c(=O)n(C)c(=O)n1C)c1ccccc1	inactive
O=C(COc1ccccc1)Nc1ccc(C(=O)N2CCCC2)cc1	inconclusive [activator, full curve, poor fit]
Cc1cc(NC(=S)Nc2ccccc2)ccc1Br	inconclusive [inhibitor, single point]
COC(=O)c1ccc2c(=O)[nH]c(CSc3nc(-c4ccc(F)cc4)cs3)nc2c1	inconclusive [inhibitor, partial curve]
O=C(NNC(=O)c1ccc(Cl)cc1Cl)Nc1ccccc1	inactive
Cc1cccc(C(=O)NC(=S)Nc2ccc(N3CCOCC3)cc2)c1	active: 7.08 µM
COc1ccccc1/C=C/C=N/n1c(-c2ccccc2)n[nH]c1=S	inconclusive [inhibitor, single point]
CCOc1ccc(/C=N/Nc2ccc(C(F)(F)F)cc2[N+](=O)[O-])cc1O	inconclusive [inhibitor, partial curve, poor fit]
Cc1ccccc1NC(=O)C(C)c1ccc(-c2ccccc2)c(F)c1 (stereo not drawn)	inconclusive [inhibitor, single point]
CCOC(=O)N1CCC(NS(=O)(=O)c2ccc(NC(C)=O)c(Cl)c2)CC1	inconclusive [inhibitor, single point]
COc1ccc(C(=O)N=c2sc3c(C)ccc(OC)c3n2C)cc1	inconclusive [activator, full curve, poor fit]
C=CCn1c(=O)c(C(=O)NCc2ccc(Cl)cc2)c(O)c2ccccc21	inconclusive [inhibitor, single point]
CCC(C)NC(=O)C1=C(C)C(=O)OC12CCC(C)CC2 (stereo not drawn)	inactive
N#CC(c1ccccc1O)N1N=C(c2ccccc2)CC1c1ccccc1 (stereo not drawn)	inconclusive [inhibitor, single point]
O=C(c1cc(COc2ccc(F)cc2Cl)on1)N1CCC(OCc2cccnc2)CC1	inconclusive [inhibitor, single point]
CCCN=Cc1c(CCC)[nH]n(-c2nc3ccccc3s2)c1=O	inconclusive [inhibitor, full curve]
CN(C)CCNc1c2c(c(C#N)c3nc4ccccc4n13)CCCC2	inactive
Cc1nc2ccccc2c2oc(C(=O)NCC3COc4ccccc4O3)cc12 (stereo not drawn)	inconclusive [inhibitor, single point]
CCOC(=O)C(C)Sc1ncc(-c2ccc(Cl)cc2)cn1 (stereo not drawn)	inactive
O=C(NCc1ccc(Cl)s1)C1CCC(=O)N(CCc2cccc(F)c2)C1 (stereo not drawn)	inactive
COc1ccccc1/C=C/C=N/NC(=O)c1cc(-c2ccc(C)o2)[nH]n1	inconclusive [inhibitor, single point]

Structure (SMILES)	Potency
CCCNc1sc(S(=O)(=O)CCC)nc1S(=O)(=O)c1ccc(C)cc1	inactive
COc1ccc(C(=O)C(CN2CCOCC2)c2ccccc2)cc1F (stereo not drawn)	active: 11.2 µM
CCC(CC)c1nc(C#N)c(NC(C)c2ccccc2)o1 (stereo not drawn)	inconclusive [inhibitor, single point]
CC1CCN(CC(O)Cn2c3ccccc3c3ccccc32)CC1 (stereo not drawn)	inactive
Nn1c(SCc2ccc(C(=O)O)cc2)nnc1-c1ccc(Cl)cc1Cl	inactive
CC12COC3(C(=O)Nc4ccc(F)cc4)CC1CCC32C (stereo not drawn)	inconclusive [activator, single point]
CCC(=O)c1ccc(N2CCN(C(=O)COc3ccccc3F)CC2)c(F)c1	inconclusive [inhibitor, single point]
COc1cnc(-c2ccccn2)nc1Oc1c(C)cccc1C	active: 20 µM
CC(C)c1cc(C(=O)N2CCCC(CCC(=O)NCc3ccccc3F)C2)n(C)n1 (stereo not drawn)	inconclusive [inhibitor, single point]
Cc1ccc(C(=O)C(c2ccccc2)N2Cc3ccccc3C2=N)cc1 (stereo not drawn)	active: 10 µM
Cc1ccc(/C=C/C(=O)Nc2cccc3ncccc23)o1	inconclusive [inhibitor, single point]
O=C(C1CCN(S(=O)(=O)c2cccc3nsnc23)CC1)N1CCCc2ccccc21	inactive
COc1ccc2c(c1)C=CC1(O2)N(CCO)c2ccccc2C1(C)C (stereo not drawn)	inconclusive [inhibitor, single point]
N/C(=N\OC(=O)c1ccc2c(c1)OCO2)c1cccnc1	inconclusive [inhibitor, single point]
O=C(Oc1cccc(Nc2ncnc3ccccc23)c1)c1ccccc1Cl	inconclusive [inhibitor, single point]
CNC(=S)N/N=C/c1c(C)nn(-c2ccccc2)c1Cl	active: 0.891 µM
Cn1cc(CNCc2cn(C)nc2-c2ccc(C3CCCCC3)cc2)cn1	inconclusive [inhibitor, single point]
COc1cc(/C(C)=N\NC(N)=S)cc(OC)c1OC	inconclusive [inhibitor, single point]
Nc1ncc(O)c(N)n1	inactive
Cc1cc(NC(=O)C(C)SCC(=O)N(C)CC(=O)Nc2ccc(Br)cc2C)no1 (stereo not drawn)	active: 12.6 µM
COc1ccc(S(=O)(=O)Nc2ccc(-n3cccc3)cc2)cc1	active: 11.2 µM
COc1ccc(OC)c(/C=N/NC(=O)CCN2CCN(C(c3ccccc3)c3ccccc3)CC2)c1	inconclusive [inhibitor, single point]
COc1cc(Cl)c(C)cc1NC(=S)NN	inconclusive [inhibitor, single point]
CCOC(=O)c1c(C)c(C(=O)NCc2ccc3c(c2)OCO3)c(C)n1CC	inactive
